The other results are listed elsewhere or left out. The main result of the screen is listed elsewhere. These columns were measured beside it and carry no call. Compounds called inactive in the main read-out are mostly missing here.

The target in the assay is Chromobox protein homolog 7 (Homo sapiens) (UniProt O95931). Nature of the assay: CBX7 chromodomain binding inhibitors, primary screen, biochemical, AlphaScreen (AID 1224903). The settings on record: AlphaScreen His6-CBX7 / biotin-H3K27me3 peptide binding; measured here: z-score of CBX7 signal; stronger effect = lower value.
Chain of UniProt O95931 (O95931 whole entry, looked up): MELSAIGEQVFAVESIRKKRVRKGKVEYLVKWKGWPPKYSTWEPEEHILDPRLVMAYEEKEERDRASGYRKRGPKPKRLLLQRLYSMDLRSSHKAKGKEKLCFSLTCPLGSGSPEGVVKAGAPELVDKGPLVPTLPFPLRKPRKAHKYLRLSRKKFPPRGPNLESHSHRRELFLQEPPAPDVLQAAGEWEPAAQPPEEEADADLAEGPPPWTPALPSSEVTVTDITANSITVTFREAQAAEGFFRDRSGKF
As to `CC1N=C(c2ccccc2F)c2cc(Cl)ccc2N(CC(=O)Nc2ccc(N(C)C)cc2)C1=O` (centres undefined), the z-score is -13.2. For the compound `COc1ccc2[nH]c(C)c(CCNCc3cccc(C(F)(F)F)c3)c2c1`, the z-score is -0.795. As to `COc1ccc2[nH]c(C)c(CCNCc3nc[nH]c3C)c2c1`, the z-score is -2.02. The same measure for `COc1ccc2[nH]c(C)c(CCNCc3ccc(C#N)cc3)c2c1`: -0.74.

In turn, `CNc1ccc(C)cc1C(=O)c1cccc(Br)c1` yielded a z-score of -12.3. Regarding `COc1ccc2[nH]c(C)c(CCNCc3ccc(OC(F)(F)F)cc3)c2c1`, the z-score was -10.6. In turn, `Cc1ccccc1-n1nnnc1C1(NCCc2c(C)[nH]c3ccccc23)CCCCC1` displayed a z-score of -9.26. For the compound `CCCCCC(C)C(C)c1cc(OC)c2c(c1)OC(C)(C)C1=C2CN(CC(N)=O)CC1` (centres undefined), the z-score is -1.72. As for `COc1ccc(F)c(CNCCc2c(C)[nH]c3ccc(OC)cc23)c1`, the z-score is -0.624.

Take `CN(C)c1ccc(C2SCC(=O)Nc3c2c(-c2ccccc2)nn3-c2ccccc2)cc1` (centres undefined): the z-score was -6.66. `COc1ccc(CCNCc2ccccn2)cc1OC`: the z-score was -12.3. Compound `CCOc1ccccc1CN(CCc1ccc2c(c1)OCO2)Cc1ccc(F)c(F)c1` returned a z-score of -4.15. The same measure for `COc1ccc2[nH]c(C)c(CCNCc3ncc[nH]3)c2c1`: -0.82; for `CCOC(=O)C1(c2ccccc2)CCN(CC(=O)Nc2cccc(Cl)c2)CC1`: -7.29.

The values above are taken from PubChem BioAssay AID1224903 (Bradner/Qi Labs at DFCI, 2016).
